In PubChem BioAssay AID652104 (National Center for Advancing Translational Sciences (NCATS), 2013):
Among all 410,000 compounds or so, about 7,200 (1.8%) were called active. Inconclusive results, whose numbers are uncertain, are shown with a selection of clear calls. Calls come from the whole dose curve; as a rule, active = well fitted activation curve with a large enough effect; inconclusive = small, poorly fitted or top-dose-only effect, or another doubt; inactive = no such curve, though single readings can be large or run the other way. Potencies of inconclusive entries are doubtful fits and often do not repeat.

assay: qHTS of TDP-43 Inhibitors; conditions: TDP-43 expressing yeast growth rescue, BacTiter-Glo, 24 h; growth rescue (activation): at 46.1 µM (top of the series) unless noted; note: nearly all actives have a fitted effect of over 50% in size; for growth rescue (activation): % of control where 0% means no effect
Outline: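 Cell-based yeast growth screen: TDP-43 expression induced in galactose, inoculum OD600=0.02 after raffinose pregrowth to mid-log. Read-out BacTiter-Glo luminescence at 24 hr, 30 deg C; inhibition of toxicity seen as signal increase.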
Potency is the fitted concentration of half-maximal effect; tags give direction and shape of the fitted curve.

Potency, inconclusive:
Nc1c(S(=O)(=O)c2cccs2)c2nc3ccccc3nc2n1/N=C/c1cccc(O)c1 35.5 µM [activator, partial curve]
O=C(O)/C=C/C(=O)Nc1ccc(Cl)cc1C(=O)c1ccccc1 22.4 µM [activator, single point]
Cc1ccc(NC(=O)C2(C)CCN2C(=O)Cc2ccccc2Cl)cc1C (configuration not stated) 22.4 µM [activator, partial curve]
COC(=O)c1cccc(C(=O)Nc2ccc(C)cc2Br)n1 7.94 µM [activator, partial curve]
Cc1ccc(C)c(Oc2cc(F)nc(N)n2)c1 11.2 µM [activator, partial curve]
N=c1nc(N2CCCCC2)cc(N)n1O 3.98 µM [activator, full curve, poor fit]
Cc1cccc(CSCc2ccc(C(=O)NCC3CCCO3)o2)c1 (configuration not stated) 11.2 µM [activator, partial curve]
COc1cc(OC)c(NC(=O)c2cc3c(s2)-c2ccc(Cl)cc2SC3)cc1Cl 4.47 µM [activator, partial curve, poor fit]
COc1ccc(N2CCN(C(=O)CSc3nnnn3-c3ccc4c(c3)OCCO4)CC2)cc1 35.5 µM [activator, single point]
Cc1cc([N+](=O)[O-])ccc1NC(=S)NC(=O)C(c1ccccc1)c1ccccc1 11.2 µM [activator, partial curve]
Cc1ccc(SCCNS(=O)(=O)c2ccc(F)cc2)cc1 15.8 µM [activator, partial curve]
Cc1ccc(NC(=O)c2nc(S(=O)(=O)Cc3cccc(C)c3)ncc2Cl)cc1 1 µM [activator, partial curve]
Cc1cccc(-c2nc(Nc3ccc(N4CCOCC4)cc3)c3ccccc3n2)c1 35.5 µM [activator, partial curve]
COCCn1c(C)cc(C(=O)CSc2nc(C)c(C)c(C)n2)c1C 25.1 µM [activator, single point]

Potency, inactive:
Cc1ccc(N2C(=O)c3oc4cc(C)c(C)cc4c(=O)c3C2c2cccc(O)c2)nc1 (configuration not stated)

Growth rescue (activation), inactive:
Cc1ccc(CNC(=O)c2cc(C3CC3)nc3c2c(C)nn3-c2cccc(Cl)c2C)cc1 22.7% [at 9.22 µM]
COc1cc(-c2nc3n(n2)C(c2ccc(F)cc2)C(C(N)=O)=C(C)N3)cc(OC)c1OC (configuration not stated) 17.8% [at 9.22 µM]
